Experimental data taken from PubChem BioAssay AID488969 (Vanderbilt High Throughput Screening Facility, 2010).
The full ranking holds about 110,000 compounds; the median of “z-score” is about -0.1, and the highest 2% start at about 2. The list shows a part of the results. Activity calls are given as the source filed them.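 How the source made its calls: active means z-score in the third read window above 3 or below -3; inactive means the rest.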

Biological target: Metabotropic glutamate receptor 8 (Rattus norvegicus) (UniProt P70579)
Test: rat mGluR8 modulators via GIRK flux, primary screen, cell-based, thallium flux, HTS (AID 488969)
Conditions: HEK293 rat mGluR8, GIRK (G protein-gated inwardly rectifying potassium channel) thallium flux, FluoZin2; at 10 µM; stronger effect = higher value; submaximal glutamate (EC20) added with thallium

Chain of UniProt P70579 (P70579 whole entry, looked up): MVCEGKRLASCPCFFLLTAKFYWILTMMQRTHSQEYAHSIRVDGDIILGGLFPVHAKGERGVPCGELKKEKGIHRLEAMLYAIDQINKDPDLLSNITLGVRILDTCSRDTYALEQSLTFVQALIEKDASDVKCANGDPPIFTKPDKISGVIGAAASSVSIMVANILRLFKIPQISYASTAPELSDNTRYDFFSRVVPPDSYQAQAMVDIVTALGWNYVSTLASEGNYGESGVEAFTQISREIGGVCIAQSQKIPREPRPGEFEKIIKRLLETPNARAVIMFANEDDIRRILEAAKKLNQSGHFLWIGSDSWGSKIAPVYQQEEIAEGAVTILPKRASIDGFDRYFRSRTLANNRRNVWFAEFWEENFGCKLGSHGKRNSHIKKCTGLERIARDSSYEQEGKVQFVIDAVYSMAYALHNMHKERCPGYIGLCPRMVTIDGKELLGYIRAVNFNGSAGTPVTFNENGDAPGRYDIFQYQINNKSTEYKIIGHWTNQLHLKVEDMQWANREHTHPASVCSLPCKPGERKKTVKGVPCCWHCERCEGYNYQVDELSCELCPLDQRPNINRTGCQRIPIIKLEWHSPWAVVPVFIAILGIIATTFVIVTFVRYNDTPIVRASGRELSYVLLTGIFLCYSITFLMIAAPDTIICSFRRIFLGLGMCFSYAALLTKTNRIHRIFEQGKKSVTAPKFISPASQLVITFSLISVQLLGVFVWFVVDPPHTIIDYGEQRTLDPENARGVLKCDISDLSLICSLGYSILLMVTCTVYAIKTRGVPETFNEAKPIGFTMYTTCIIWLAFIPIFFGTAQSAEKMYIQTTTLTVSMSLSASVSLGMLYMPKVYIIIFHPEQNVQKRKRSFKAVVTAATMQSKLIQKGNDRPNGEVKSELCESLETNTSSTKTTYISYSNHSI

Compound	z-score
Oc1ccccc1C=NC1=NN(c2cccc(C(F)(F)F)c2)CC1	0.167
CCOC(=O)C1=C(NC(=S)NC(=O)c2ccccc2)c2ccccc2CC1(C)C	active: 5.58
Cc1ccc(NC(=S)N2CCN(c3ncccn3)CC2)cc1C	0.148
O=C(NCCC1=CCCCC1)C1CCN(S(=O)(=O)c2cccc3nsnc23)CC1	0.0327
Cc1cc(C(F)F)n2nc(C(=O)Nc3ccccc3Br)nc2n1	-0.246
Cc1ccc(-c2csc(N/N=C/c3ccco3)n2)cc1	-0.357
CN(Cc1ccccc1)C(NC(=O)c1ccccc1)C(Cl)(Cl)Cl (stereo not given)	-0.194
CCOc1ccc2nc(SCC(=O)N3CCCc4ccccc43)sc2c1	-0.128
Brc1c(CSc2nc3ccccc3s2)nc2ncccn12	-0.356
CC1=C(C(=O)NC(C)C)C2(CCC(C)CC2)OC1=O (stereo not given)	-1.59
COc1ccccc1NC(=O)CSc1nnc(-c2ccccn2)n1Cc1ccco1	-1.55
Cc1nnc(SCC(=O)N2CCN(S(=O)(=O)c3ccc(Cl)cc3)CC2)[nH]c1=O	0.514
Cn1c(=O)c2c(nc(CN3CCOCC3)n2CCCc2ccccc2)n(C)c1=O	0.672
N#Cc1cccc(-n2c(-c3ccccc3)nnc2-c2ccccc2)c1C#N	-0.147
COc1ccc(Cc2nc3c4c(ncn3n2)Oc2ccc3ccccc3c2C4c2ccc(OC)c(OC)c2)cc1 (stereo not given)	-0.407
CCN(CC)c1ccc(C(=O)NC(=S)Nc2cc(S(=O)(=O)N3CCOCC3)ccc2-n2cncn2)cc1	0.811
O=C(CC1NC(=O)NC1=O)Nc1cccc2ccccc12 (stereo not given)	-0.153
COc1ccc(S(=O)(=O)N2Cc3ccccc3CC2C(=O)Nc2ccc(O)cc2)cc1OC (stereo not given)	-0.415
O=C1NC(Cc2c[nH]c3ccccc23)C(=O)N1Cc1cccc2ccccc12 (stereo not given)	-0.157
CCOC(CNC(=O)CCc1c(C)nc2ncnn2c1C)OCC	-0.0825
CC1(C)CC(CC(=O)O)(c2ccc(Cl)cc2)CCO1 (stereo not given)	-0.155
FC(F)Oc1ccc(-c2csc(Cc3nnc4n3CCCCC4)n2)cc1	-0.0502

Compound	z-score
O=C(COc1ccc(/C=N/NS(=O)(=O)c2ccccc2)cc1)Nc1ccccc1	-0.127
COC(=O)Cc1ccc2c3ccccc3n(C)c2c1	-0.078
CCCSc1nc(N2CCOCC2)c2c(c1C#N)CCCC2	-1.15
C=CCc1ccccc1OCC(O)CN1CCN(CCN2C(=O)c3cccc4cccc(c34)C2=O)CC1 (stereo not given)	-0.0124
Cc1ccc(C2C3=C(Nc4[nH]n(-c5ccccc5)c(=O)c42)c2ccccc2C3=O)cc1 (stereo not given)	-0.223
COc1c2c(nc3occc13)C(CC=C(C)C)(OC)C(O)CC2 (stereo not given)	-0.121
CCCc1ccc(C(=O)N2CCN(c3ccccc3OCC)CC2)cc1	active: -3.53
CCOc1ccc(Br)cc1CC(=O)O	0.168
COc1cc(NC(=O)c2cc(-n3cnnc3)ccc2Cl)cc(OC)c1	-0.403
CCOC(=O)C1=C(O)/C(=C/c2ccc(CNC(=O)C(=O)Nc3ccc(C)cc3)o2)N=C1C	-0.118
Cc1ccc(C(=O)Nc2nc(=O)n(C(=O)C3CC3)s2)cc1	-0.185
O=C(CCNS(=O)(=O)c1ccc(Cl)cc1)NCc1ccccn1	0.775
Cc1ccc2nc(SCc3ccc([N+](=O)[O-])cc3)[nH]c2c1	-0.559
CC(C)CNC(=O)C1CCCN1S(=O)(=O)c1ccc(Cl)cc1 (stereo not given)	0.241
O=C(CSc1c2c(nc3cc(Cl)ccc13)CCCC2)NCc1ccco1	-0.36
COc1cccc(NC(=O)C2C3C=CC(O3)C2C(=O)NCc2cccnc2)c1 (stereo not given)	-0.0842
CCc1nc(SCC(=O)NCc2ccco2)c2c3c(sc2n1)CCCC3	0.232
O=C(N/N=C/c1ccco1)c1cc(Br)ccc1OCc1ccccc1	0.0858
c1ccc(-c2noc(CN3CCN(c4ccccc4)CC3)n2)cc1	0.197
Cc1cc(NC(=O)C2CCCC2)nc2c1c(=O)oc1ccccc12	-0.0802
CCCNS(=O)(=O)c1ccc(OCC(=O)NCCCOC)cc1	-0.378
O=C(CSc1ccc2ccccc2c1)Nc1ccc(S(=O)(=O)Nc2nccs2)cc1	0.216

Compound	z-score
Cc1nc2ccccc2n1/N=C/c1cccnc1	-0.186
Cc1ccccc1N=C1SC(CC(=O)Nc2ccc3ccccc3c2)C(=O)N1Cc1ccccn1 (stereo not given)	-0.357
CC1CC(=O)C2=C(C1)Nc1ncnn1C2c1ccccc1 (stereo not given)	1.35
O=C(O)c1cc(Cl)c2ccccc2c1O	-1.43
CCCCN(CC)C(=O)Cn1cnc2ccc(S(=O)(=O)N3CCC(C)CC3)cc2c1=O	-0.128
CN(C)c1ccc([C@@H]2[C@@H]([N+](=O)[O-])[C@H]3C=Cc4ccccc4N3[C@H]2C(=O)c2ccc(Cl)cc2)cc1	0.511
CC1(C(=O)N2CC3(CC(c4ccccc4)=NO3)C[C@H]2C(=O)NCC(N)=O)CC1 (stereo not given in full)	-0.0396
C=CCn1c(N)c(C(=O)NCC2CCCO2)sc1=S (stereo not given)	0.129
COc1ccc(CNC(=O)c2ccc(NC(=O)CC3SC(N4CCCC4)=NC3=O)cc2)cc1 (stereo not given)	-0.116
COc1ccc(S(=O)(=O)N2CCN(C3Cc4ccccc4C3)CC2)cc1	-0.439
CCOC(=O)C1CSC(CC(=O)Nc2ccc(Cl)c(Cl)c2)C(=O)N1 (stereo not given)	1.38
CCC(=O)NC(NCC1CCCO1)C(Cl)(Cl)Cl (stereo not given)	-0.0963
CN(Cc1nc(-c2ccncc2)no1)S(=O)(=O)c1ccc(Br)cc1	0.529
Cc1ccc(OCCCC(=O)Nc2ccc(N3CCOCC3)cc2)c(C)c1	0.793
Clc1ccc(SCc2cc(-c3ccccc3)no2)cc1	-0.0581
Cc1cc(C)n(CCCNC(=O)c2ccc3c(c2)NC(=O)CS3)n1	-0.171
COc1cccc(C(=O)NC2CCN(CC(=O)Nc3nccs3)CC2)c1	-0.769
COc1ccc(N(C(C)=O)S(=O)(=O)c2cc(OC)ccc2OC)cc1	0.226
Cc1nn(CC(=O)Nc2ccc(C(=O)N3CCCCC3)cc2)c(=O)c2ccccc12	0.27
CC1(C(=O)Nc2nccs2)Cc2ccccc2C(=O)O1 (stereo not given)	-0.876
CC(C)NC(=O)c1cc2c(-c3ccc(Cl)cc3)nn(C)c2s1	0.0729
O=c1cc(NC2CCCCCC2)[nH]c(=O)[nH]1	0.183

Compound	z-score
CC(C)Oc1ccc(/C=N/NC(=O)C(CSCc2ccccc2)NC(=O)c2ccc([N+](=O)[O-])cc2)cc1 (stereo not given)	-0.341
Cc1cc(C)cc(N2C(=O)CN(Cc3sccc3C)C2=S)c1	-0.593
CCOC(=O)c1nnc2c(Br)c(-c3ccccc3)nn2c1C	-0.554
Cn1c(=O)c2c(nc(NCCCO)n2Cc2cccc(C(F)(F)F)c2)n(C)c1=O	0.194
Cc1ccc(-n2ncc3c(Nc4c(C)n(C)n(-c5ccccc5)c4=O)ncnc32)c(C)c1	0.188
O=C(CCS(=O)(=O)c1ccc(Br)s1)NC1CCCC1	-0.142
CC(NC(=O)c1ccccc1NS(C)(=O)=O)c1ccccc1 (stereo not given)	0.106
CCOc1ccccc1C1CC(c2ccc(Cl)cc2)Nc2nc(N)nn21 (stereo not given)	0.222
CC(C)N1C(=O)CCC1C(=O)NCCc1ccccc1 (stereo not given)	-0.366
C[N+]12CCCCC1C(COC(=O)c1ccc3c(c1)OCO3)CCC2 (stereo not given)	-0.0748
O=C(CSc1ccccc1)Nc1cc(Cl)ccc1Oc1ccccc1	-0.0314
COc1ccc(C(=O)Nc2ccc(S(=O)(=O)N3CCCCC3C)cc2)c(OC)c1OC (stereo not given)	0.153
CN(C)c1ccc(CN(C(=O)COc2ccccc2)C2CCS(=O)(=O)C2)cc1 (stereo not given)	-0.709
CC(C)N(C)CCOC(=O)c1ccc2c(c1)OCCO2	0.155
COc1cc([N+](=O)[O-])ccc1NC(=O)CCCOc1ccccc1	-0.378
Cc1ccc(C(=O)n2nc(-c3ccccc3)nc2NCc2ccco2)cc1	-0.173
C=CCN1C(=O)CSc2ccc(C(=O)NCc3ccco3)cc21	0.732
Cc1ccc(NC(=O)c2cc(S(=O)(=O)NCCC3=CCCCC3)ccc2F)cc1	-0.136
O=C(Nn1cnnc1)c1ccc(F)c(S(=O)(=O)N2CCCCC2)c1	-0.168
CN(C)c1ccc(C2OC(=O)C3(CCCC3)C(=O)C2(C)C)cc1 (stereo not given)	-0.0938
c1nnc2c3c4c(sc3ncn12)CCCC4	-0.205
Cc1cc(C=C2C(=O)CCCC2=O)c(C)n1-c1ccccc1	-0.169

Compound	z-score
CCN(CC)c1ccc(NC(=O)CSc2nc(C)cc(=O)[nH]2)cc1	-0.559
CCc1ccc(N(CC(=O)Nc2ccccc2C(=O)N2CCOCC2)S(C)(=O)=O)cc1	-0.219
CC1(C)Cc2nc(NCCN3CCOCC3)c(C#N)cc2CO1	active: 7.19
Cc1ccc(CNc2ccc(S(=O)(=O)N3CCOCC3)cc2[N+](=O)[O-])cc1	0.0549
COC(=O)c1ccccc1NC(=O)CSc1nccn1C	-0.372
CC(=O)c1cc2c(cc1NC(=O)CN1CCN(c3ccc(F)cc3)CC1)OCO2	-0.109
Cc1ccc(C(=O)Nc2nc(-c3cc(Cl)sc3Cl)cs2)cc1	-0.946
O=C(C1=NNCC1c1ccc(Cl)cc1)C1CO1 (stereo not given)	-0.386
O=S1(=O)c2ccccc2N=NN1Cc1cc(Cl)cc(Cl)c1	-0.076
COc1ccc(CCC(=O)Nc2cccc(S(=O)(=O)N(C)C)c2)cc1OC	-0.0481
CCOCCCNS(=O)(=O)c1ccc2c(c1)CCN2C(=O)CC	-0.314
O=c1[nH]c2ccc(NC(=S)Nc3ccc(Cl)cc3Cl)cc2[nH]1	0.027
Cc1nnc(SCC(=O)N2c3ccccc3C(C)(c3ccc(Cl)cc3)CC2(C)C)s1 (stereo not given)	0.227
O=c1cc2c(nn1Cc1c(Cl)cccc1Cl)-c1ccccc1CC2	-0.164
C=CCNC(=O)c1cccc(Br)c1	-0.15
O=C(CN1CCOCC1)Nc1cccc(Br)c1	-0.534
Cc1ccc(NCC(=O)N/N=C/c2cccc(Oc3ccccc3)c2)cc1	-0.211
Nc1cc(=O)[nH]c(SCC(=O)Nc2ccc(F)c(Cl)c2)n1	-0.193
S=c1sc2c(N3CCOCC3)ncnc2n1-c1ccccc1	0.0646
CCc1cc2c(N=Nc3c(O)[nH]c4ccccc34)ncnc2s1	-0.149
O=C(Nc1ccccc1)C1=C(N2CCOCC2)/C(=C/c2cccnc2)CC1	-0.685
O=C(O)C1C2CCC(O2)C1C(=O)Nc1ccc(O)cc1 (stereo not given)	-0.366
